These are yes or no findings as the source states them, for the method shown. Some results given as binding are weak or reduced against the parent protein; the word gives no strength. One block for each binder: values may come before it.
Legend:
[1] = molecular target: T1, Shc SH2 domain (380 – 473) (UniProt P29353); test: ITC; SH2 domain with β3 phosphopeptides; 'in all the experiments performed'; 12°C or 25°C; 50 mM Tris, pH 7.5, 100 mM NaCl, 5 mM β-mercaptoethanol; both purified
T1 sequence: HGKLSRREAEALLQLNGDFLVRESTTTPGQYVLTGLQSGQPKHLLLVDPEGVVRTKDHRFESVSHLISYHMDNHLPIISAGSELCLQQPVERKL

[2] = molecular target: T2, Shc PTB domain (17 – 207) (UniProt P29353); test: NMR titration; 15N-HSQC of 15N-labelled PTB domain (100-200 μM) with bi-β3 or c-β3 added at 1:2 protein-to-peptide ratio, without and with PtdIns (1:0 to 1:15); 35°C; 50 mM Tris, pH 7.5, 100 mM NaCl, 5 mM β-mercaptoethanol, 7% D2O; both purified
T2 sequence: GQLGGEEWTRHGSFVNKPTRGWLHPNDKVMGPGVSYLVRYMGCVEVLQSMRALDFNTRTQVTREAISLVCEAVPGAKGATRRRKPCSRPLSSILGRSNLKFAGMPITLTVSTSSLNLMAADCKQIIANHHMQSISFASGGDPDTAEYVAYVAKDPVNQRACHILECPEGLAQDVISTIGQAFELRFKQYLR

[3] = molecular target: T2, Shc PTB domain (17 – 207); test: SEC; Superdex-75; 50 mM Tris, pH 7.5, 100 mM NaCl, 5 mM β-mercaptoethanol; both purified
[4] = molecular target: T1, Shc SH2 domain (380 – 473); test: as above
[5] = molecular target: full length Shc (1 – 473) (UniProt P29353); test: as above

binding [1]: no binding
Binder: RAKWDTANNPLYKEATSTFTNITYRGT (phosphotyrosine at 747 and 759 (pY)) [bi-β3: β3 integrin derived bi-phosphorylated (Y747 and Y759) peptide]

binding [1]: no binding
binding [2]: binds
Binder: ATSTFTNITYRGT (phosphotyrosine at 759 (pY)) [c-β3: β3 integrin derived peptide phosphorylated at C-terminal tyrosine (Y759)]

binding [3]: no binding
B1: Shc PTB domain (17 – 207) (domain or fragment, UniProt P29353-2 17-207)
chain: T2 sequence

binding [4]: no binding
B2: Shc SH2 domain (380 – 473) (domain or fragment, UniProt P29353-2 380-473)
chain: T1 sequence

binding [5]: no binding
B3: full length Shc (1 – 473) (protein, UniProt P29353-2 1-473)
chain: MNKLSGGGGRRTRVEGGQLGGEEWTRHGSFVNKPTRGWLHPNDKVMGPGVSYLVRYMGCVEVLQSMRALDFNTRTQVTREAISLVCEAVPGAKGATRRRKPCSRPLSSILGRSNLKFAGMPITLTVSTSSLNLMAADCKQIIANHHMQSISFASGGDPDTAEYVAYVAKDPVNQRACHILECPEGLAQDVISTIGQAFELRFKQYLRNPPKLVTPHDRMAGFDGSAWDEEEEEPPDHQYYNDFPGKEPPLGGVVDMRLREGAAPGAARPTAPNAQTPSHLGATLPVGQPVGGDPEVRKQMPPPPPCPGRELFDDPSYVNVQNLDKARQAVGGAGPPNPAINGSAPRDLFDMKPFEDALRVPPPPQSVSMAEQLRGEPWFHGKLSRREAEALLQLNGDFLVRESTTTPGQYVLTGLQSGQPKHLLLVDPEGVVRTKDHRFESVSHLISYHMDNHLPIISAGSELCLQQPVERKL

— paper PMC4397963, “Phospho-Tyrosine(s) vs. Phosphatidylinositol Binding in Shc Mediated Integrin Signaling” (American journal of molecular biology, 2015)
